Screen size: about 350,000 compounds; about 31,000 (8.9%) were called active. Inconclusive means that the source gave no clear call. Such entries were picked first, then a sample of the others. Calls come from the whole dose curve; as a rule, active = well fitted inhibition curve with a large enough effect; inconclusive = small, poorly fitted or top-dose-only effect; inactive = no such curve, though single readings can be large or run the other way. Potencies beside an inconclusive call are fits to weak or partial responses and may not hold up.
target: Histone-lysine N-methyltransferase EHMT2 (Homo sapiens) (UniProt Q96KQ7); test: qHTS Assay for Inhibitors of Histone Lysine Methyltransferase G9a; conditions: G9a H3K9 monomethylation, AlphaScreen, 2 h; activity, negative = inhibition: at 59 µM (top of the series) unless noted; note: nearly all actives have a fitted effect of over 75% in size
Method in brief: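 Readings reflect AlphaScreen signal from monomethyl-H3K9 antibody detection. HMT at 20 nM; substrate b-H3K9 500 nM; cofactor SAM 20 uM; 2 h RT reaction; compounds tested as titrations in qHTS with 15 min preincubation.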
% is set by controls: 0 for no effect and ±100 for the full control effect; potency is the fitted concentration of half-maximal effect; tags give direction and shape of the fitted curve.

Chain of UniProt Q96KQ7 (Q96KQ7 whole entry, looked up): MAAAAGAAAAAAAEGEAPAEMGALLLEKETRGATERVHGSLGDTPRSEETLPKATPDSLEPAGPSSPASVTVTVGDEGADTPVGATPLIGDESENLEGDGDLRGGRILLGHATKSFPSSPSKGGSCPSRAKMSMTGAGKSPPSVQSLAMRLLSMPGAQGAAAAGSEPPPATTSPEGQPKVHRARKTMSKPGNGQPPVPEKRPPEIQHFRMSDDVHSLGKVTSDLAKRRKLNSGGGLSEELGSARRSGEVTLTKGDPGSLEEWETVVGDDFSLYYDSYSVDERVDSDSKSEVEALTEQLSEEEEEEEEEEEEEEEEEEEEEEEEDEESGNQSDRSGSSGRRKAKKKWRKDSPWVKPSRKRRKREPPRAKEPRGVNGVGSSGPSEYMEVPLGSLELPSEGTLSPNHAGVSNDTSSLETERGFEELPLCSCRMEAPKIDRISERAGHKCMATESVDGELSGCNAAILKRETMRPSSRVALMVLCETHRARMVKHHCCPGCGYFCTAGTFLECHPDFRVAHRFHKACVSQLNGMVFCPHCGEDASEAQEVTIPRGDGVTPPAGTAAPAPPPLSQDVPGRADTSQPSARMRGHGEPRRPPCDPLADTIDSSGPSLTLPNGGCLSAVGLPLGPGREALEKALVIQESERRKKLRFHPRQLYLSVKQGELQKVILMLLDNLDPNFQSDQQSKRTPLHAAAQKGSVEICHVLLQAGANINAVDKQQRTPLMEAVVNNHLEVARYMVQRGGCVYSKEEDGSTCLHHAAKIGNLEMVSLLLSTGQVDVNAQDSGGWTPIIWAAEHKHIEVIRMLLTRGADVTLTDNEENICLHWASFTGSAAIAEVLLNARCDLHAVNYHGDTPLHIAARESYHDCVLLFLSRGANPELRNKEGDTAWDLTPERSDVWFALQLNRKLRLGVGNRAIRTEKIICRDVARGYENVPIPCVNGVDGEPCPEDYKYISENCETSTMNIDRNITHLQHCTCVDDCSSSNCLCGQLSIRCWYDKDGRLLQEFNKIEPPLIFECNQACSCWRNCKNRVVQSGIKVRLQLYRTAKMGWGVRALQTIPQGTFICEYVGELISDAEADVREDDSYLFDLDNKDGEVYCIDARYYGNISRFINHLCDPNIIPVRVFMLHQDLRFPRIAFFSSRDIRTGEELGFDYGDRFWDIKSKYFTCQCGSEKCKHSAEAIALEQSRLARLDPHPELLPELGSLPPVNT

Row | SMILES | Potency | activity, negative = inhibition
1 | CCOC(=O)CC1C(=O)NCCN1Cc1cccc(C(F)(F)F)c1 (centres undefined) | inconclusive: 89.1 µM [inhibitor, single point] | –
2 | Cc1ccc(OC(C)C(=O)Nc2ccccc2C(=O)NCc2cccnc2)cc1C (centres undefined) | – | inactive: 1.16% [at 12.7 µM]
3 | CCn1c(SCC(=O)Nc2ccccc2N2CCOCC2)nnc1-c1ccccc1O | inconclusive: 44.7 µM [inhibitor, partial curve] | –
4 | CCS(=O)(=O)N1CCc2cc(C(=O)Nc3ccc(C)c(Cl)c3)ccc21 | inconclusive: 39.8 µM [inhibitor, single point] | –
5 | Cc1sc(NC(=O)c2ccco2)c(C(c2cccnc2)N2CCN(C)CC2)c1C (centres undefined) | – | inactive: -11.4% [at 102 µM]
6 | CCc1ccc(-n2c(=O)c3ccc(C(=O)NCCc4ccccc4)cc3n(CC(N)=O)c2=O)cc1 | inconclusive: 89.1 µM [inhibitor, single point] | –
7 | O=C(N/N=C/c1ccccn1)c1ccccc1 | inconclusive: 0.708 µM [inhibitor, full curve, poor fit] | –
8 | COc1ccc(CNC(=O)[C@H](C)NC(=O)[C@@H]2Cc3ccccc3CN2)cc1 | active: 70.8 µM | –
9 | CCOc1ccccc1NC(=S)N1CCC(NC(=O)C(C)(C)C)CC1 | – | inactive: 43.9% [at 102 µM]
10 | O=C(CCCN1C(=O)/C(=C/c2ccc(F)cc2)SC1=S)NCCCn1ccnc1 | inconclusive: 89.1 µM [inhibitor, single point] | –
11 | Cn1c(=O)c(N)c2c3c(c(Br)ccc31)C(=O)c1ccccc1-2 | active: 4.47 µM | –
12 | C=CCNc1nc(-c2cc3ccccc3o2)cs1 | active: 11.2 µM | –
13 | CCN(CC)CCC(=O)N1c2ccccc2Sc2ccc(NC(=O)OC)cc21 | inconclusive: 89.1 µM [inhibitor, single point] | –
14 | CCOc1ccc(S(=O)(=O)N(C)CC(=O)NCc2ccco2)cc1 | – | inactive: -16.6%
15 | CCC1(c2ccc(OC)cc2)NC(=O)N(CC(=O)c2ccc3c(c2)OCCO3)C1=O (centres undefined) | – | inactive: 1.13% [at 12.7 µM]
16 | CC(C)NC(=O)C(c1ccc(F)cc1)N(C(=O)CCC(=O)Nc1ccccn1)C1CCCCC1 (centres undefined) | inconclusive: 0.631 µM [inhibitor, partial curve, poor fit] | –
17 | COc1ccc([C@@H]2CC=C(C(=O)O)[C@H](c3ccc(Cl)cc3)N2S(=O)(=O)c2ccc(C)cc2)cc1OC | – | inactive: 2.88% [at 2.33 µM]
18 | CSCC(=O)N1CCCC(C(=O)c2cc(F)ccc2F)C1 (centres undefined) | inconclusive: 89.1 µM [inhibitor, single point] | –
19 | COC(=O)c1ccc(N2CCN(S(=O)(=O)c3c(C)cc(C)cc3C)CC2)c([N+](=O)[O-])c1 | – | inconclusive: -68.1% [inhibitor]

From PubChem BioAssay AID504332 (National Center for Advancing Translational Sciences (NCATS), 2011)
